# From article PMC4336329 (PLoS ONE, 2015)
# Out of some 310,000 compounds screened, about 14,000 (4.5%) showed an effect of 50% or more. Effects have a minus sign here. Some of the results follow.
# Target: human ether-à-go-go-related gene (hERG) potassium channel (human, UniProt Q12809)
# Assay: primary screen, population patch clamp on CHO cells stably expressing hERG
# 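Note: peak tail current of the secondary pulse compared with the same well before compound.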
# human ether-à-go-go-related gene (hERG) potassium channel, sequence (Q12809 whole entry, looked up): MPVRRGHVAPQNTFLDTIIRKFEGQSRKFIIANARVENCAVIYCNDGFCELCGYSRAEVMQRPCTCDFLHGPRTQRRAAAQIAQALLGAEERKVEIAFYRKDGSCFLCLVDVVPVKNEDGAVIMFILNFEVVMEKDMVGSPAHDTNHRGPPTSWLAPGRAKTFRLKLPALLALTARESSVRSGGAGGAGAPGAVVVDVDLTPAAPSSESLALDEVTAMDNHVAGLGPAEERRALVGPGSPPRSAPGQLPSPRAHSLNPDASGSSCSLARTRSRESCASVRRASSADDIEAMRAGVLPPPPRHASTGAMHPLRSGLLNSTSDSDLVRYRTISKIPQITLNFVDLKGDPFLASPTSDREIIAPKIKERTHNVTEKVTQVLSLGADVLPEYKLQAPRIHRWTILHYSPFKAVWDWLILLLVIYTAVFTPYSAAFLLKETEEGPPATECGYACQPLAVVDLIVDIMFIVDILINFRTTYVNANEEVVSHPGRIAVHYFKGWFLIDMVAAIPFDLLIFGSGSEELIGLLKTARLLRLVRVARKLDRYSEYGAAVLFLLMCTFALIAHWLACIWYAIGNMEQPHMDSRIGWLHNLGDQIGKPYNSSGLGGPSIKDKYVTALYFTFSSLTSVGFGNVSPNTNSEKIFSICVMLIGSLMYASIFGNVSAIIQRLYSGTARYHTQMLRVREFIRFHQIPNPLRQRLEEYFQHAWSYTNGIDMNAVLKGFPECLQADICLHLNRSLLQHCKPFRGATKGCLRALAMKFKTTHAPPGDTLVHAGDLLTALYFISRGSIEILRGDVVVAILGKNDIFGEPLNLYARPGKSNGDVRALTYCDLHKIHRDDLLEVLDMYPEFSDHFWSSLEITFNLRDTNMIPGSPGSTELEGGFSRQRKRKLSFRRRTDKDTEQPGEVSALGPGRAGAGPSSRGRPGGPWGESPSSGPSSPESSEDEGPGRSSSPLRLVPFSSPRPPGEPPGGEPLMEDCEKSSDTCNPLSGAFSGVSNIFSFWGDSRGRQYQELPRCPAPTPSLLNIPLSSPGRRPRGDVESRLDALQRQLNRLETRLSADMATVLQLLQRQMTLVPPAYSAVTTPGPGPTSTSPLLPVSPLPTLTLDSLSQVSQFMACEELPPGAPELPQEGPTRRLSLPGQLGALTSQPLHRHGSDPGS
row,SMILES,"hERG current change (%, negative = inhibition) at 10uM"
1,COc1cc(/C=C(\C#N)C(=O)NCc2cccs2)ccc1O,-0.725%
2,CC(=O)Nc1ccc(S(=O)(=O)N2CCC(C(=O)NCc3ccncc3)CC2)cc1,6.89%
3,CN(C)CCn1c(=O)n(Cc2ccccc2)c(=O)c2c3c(sc21)CCCCC3,-3.31%
4,COc1cc(Br)cc(CN2CCN(C=O)CC2)c1O,-2.6%
5,Oc1ccc(/C(Cc2ccccn2)=N\Nc2ccccc2)c(O)c1,8.76%
6,COC(=O)c1ccc(OC)c(Cn2c(=O)n(C)c(=O)c3ccccc32)c1,9.94%
7,COc1ccc(CN(C(=O)COc2ccccc2)c2ccccc2C(=O)O)cc1,23.9%
8,Cc1oc(=O)c(NC(=O)c2ccccc2)cc1C(=O)c1ccccc1,10.6%
9,COc1cccc(CNC(=O)CSCc2cnn(-c3ccccc3)c2-n2cccc2)c1,-20.1%
10,CC(C(=O)N=Nc1c(O)[nH]c2ccccc12)n1cnc2ccccc2c1=O (stereo not shown),-19.2%
11,CCOC(=O)CCCNC(=O)COC(=O)c1cccc(C)c1O,6.71%
12,O=C1CC(=O)N2N=C(c3ccc([N+](=O)[O-])cc3)SC2=N1,-1.2%
13,CCc1noc(C)c1C(=O)Nc1cc(S(=O)(=O)N(CC)CC)ccc1N1CCOCC1,-18.4%
14,O=C(Nc1ccccn1)C1CCN(S(=O)(=O)c2cccc3nonc23)CC1,-12.8%
15,Cc1ccc(CCSc2ccc(F)cc2)cn1.O=C(O)C(=O)O,-3.91%
16,Fc1ccc(-c2cc3nc(-c4ccccc4)cc(N4CCOCC4)n3n2)cc1,1.88%
17,COCCNC(=O)[C@@]1(Cc2ccccc2)C=C[C@@H](C)N1C(C)=O,11.5%
18,O=C(COc1ccc(Br)cc1)N1CCOCC1,-0.627%
19,O=C(C(=O)N1CCN(c2ccccc2Cl)CC1)c1c[nH]c2ccccc12,9.59%
20,CC1CCN(S(=O)(=O)c2ccc3c(c2)N(CC(=O)NCCCN2CCCC(C)C2)C(=O)CO3)CC1 (stereo not shown),-8.35%
21,CC(=O)NCC(=O)OCC(=O)c1ccc(C)cc1,13.4%
22,CC(C)N1CCC(=NNC(=O)c2ccc(Br)o2)CC1,7.81%
23,CCOc1ccc(OCc2ccc(C(=O)NCC3CCCO3)o2)cc1 (stereo not shown),-7.61%

row,SMILES,"hERG current change (%, negative = inhibition) at 10uM"
1,Cc1ccc2cc(CCNC(=O)c3cccc([N+](=O)[O-])c3)c(=O)[nH]c2c1,-20.2%
2,COC(=O)CCc1nc2ccccc2nc1OC,25.3%
3,COc1ccc(OC)c(/C(O)=C/C(=O)C(=O)Nc2cc(C)cc(C)c2)c1,-5.65%
4,Cc1ccc(CNC(=O)Cc2ccc(-c3ccccc3)cc2)cc1,-7.08%
5,O=C(CCn1cnc(-c2ccccc2)c1-c1ccccc1)N/N=C/c1ccccc1O,-18.4%
6,Fc1ccccc1NC(=S)NCCc1ccc(Cl)cc1,2.22%
7,CCOc1ccc(-c2nnn(CC(=O)NCc3ccc(C)cc3)n2)cc1,8.27%
8,Cc1cnc(C)c(N2CCN(Cc3nc(-c4ccccc4)no3)CC2)n1,-42.2%
9,COc1ccc(C2C(C#N)=C(N)N(c3ccccc3C#N)C3=C2C(=O)CCC3)cc1CN1CCCC1 (stereo not shown),9.11%
10,CCc1noc(C)c1C(=O)NNC(=O)c1nn(C)c(=O)c2ccccc12,-50.2%
11,COc1ccc(CCC(=O)N2CCN(c3ccccc3)CC2)cc1OC,14%
12,Cc1nccc2[nH]c(=O)c(C(=O)NC3CCCCC3C)cc12 (stereo not shown),-4.13%
13,CCC(Sc1ccccn1)C(=O)Nc1nnc(C)s1 (stereo not shown),-11.8%
14,C[C@@]12C(=O)N(Cc3ccccc3)CC(=O)N1[C@H]1c3cc(Cl)ccc3OC[C@@H]1[C@@H]2c1ccccc1,16.5%
15,COc1ccc(/C(C#N)=C/c2c(-c3ccc(Cl)cc3)nc3c(C)cccn23)cc1,16.9%
16,COc1ccc(CCNC(=O)c2cccnc2)cc1,-2.76%
17,Cc1ccc(NS(=O)(=O)c2cc(NC(=O)c3ccc4c(c3)NC(=O)CS4)ccc2Cl)c(C)c1,25.1%
18,CC(C)C(=O)NC(=O)[C@@H]1CCCN1C(=O)/C=C/c1ccccc1,8.62%
19,COc1cc(CNc2ccccc2SC)cc(OC)c1OC,13.5%
20,Cn1c(NCc2cc(Br)ccc2O)nc2ccccc21,0.412%
21,O=C(Nc1ccccc1)NC1(C(=O)NCCCN2CCOCC2)CCCCC1,-2.49%
22,O=c1cc(O)c2ccccc2n1Cc1ccccc1,6.05%
23,CC1C(=O)NC(=O)C1c1ccccc1 (stereo not shown),14.2%

row,SMILES,"hERG current change (%, negative = inhibition) at 10uM"
1,N#C/C(=C/c1ccc(N2CCOCC2)o1)C(=O)NC1CCCCC1,-32.5%
2,CC(C)OCC1CC(CC(=O)Nc2ccc([N+](=O)[O-])cc2)C(=O)O1 (stereo not shown),-34.1%
3,CCOC(=O)C(NC(=O)c1cccnc1)(Nc1cccc(C)n1)C(F)(F)F (stereo not shown),1.24%
4,CC1CN(C(=O)c2cc3c(=O)n4ccccc4nc3s2)CC(C)O1 (stereo not shown),-4.06%
5,Cc1ccc(CN2C(=O)C(CC(C)C)Nc3ncnc(N4CCN(c5ccccn5)CC4)c32)cc1.O=C(O)C(F)(F)F (stereo not shown),-43.3%
6,CCNC(=S)N(CCc1c(C)[nH]c2ccc(Cl)cc12)Cc1cccnc1,-19.3%
7,Cc1cccc(NC(=S)NCCc2ccccn2)c1,4.38%
8,O=C(NC1CC1)c1cccc(Br)c1,0.381%
9,COc1cccc(NC(=S)N2CCC(N(C)CC3CCCO3)CC2)c1 (stereo not shown),-15.2%
10,CCCCN1C(=O)CC(N2CCOCC2)C1=O (stereo not shown),16.9%
11,Cc1cc2cc(CNC(=O)COc3ccccc3)ccc2n1C,-1.63%
12,O=S(=O)(Nn1cnnc1)c1ccc2ccccc2c1,28.7%
13,CN(CC(=O)Nc1ccc(C#N)cc1)CC(=O)Nc1ccc(N2CCOCC2)cc1,-56.3%
14,Cc1cc(C(c2cc(C)c(N)c(C)c2)c2ccco2)cc(C)c1N,0.594%
15,CC(=O)N1CCN(CC(O)COc2ccc(S(=O)(=O)N3CCOCC3)cc2)CC1.Cl (stereo not shown),7.78%
16,CCOC(=O)c1c(C)n(-c2ccc(OC)cc2)c2ccc(O)c(CN(C)C)c12.Cl,-74.2%
17,COc1ccc(C(=O)Nc2cc(OC)c(NC(=O)c3ccco3)cc2OC)cc1,-25.1%
18,CCOC(=O)c1ccc(N/C(=N\S(=O)(=O)c2ccccc2C)c2ccccc2)cc1,-2.52%
19,COc1cc2ccccc2cc1C(=O)Nc1ccc(C)cn1,8.6%
20,Cc1[nH]c(C(=O)N/N=C/c2ccc(N(C)C)cc2)c(C)c1C(=O)N/N=C/c1ccc(N(C)C)cc1,24.5%
21,Cc1cc(C)cc(NC(=O)CSc2nnc(CNC(=O)c3cccs3)o2)c1,-22%
22,Cc1cc(/C=C(\C#N)C(=O)NC2CCCCCC2)c(C)[nH]1,9.54%
23,O=C1c2ccccc2C(=O)N1CSc1ncccn1,5.23%

row,SMILES,"hERG current change (%, negative = inhibition) at 10uM"
1,O=S(=O)(c1ccc2ccccc2c1)N1CCN(S(=O)(=O)N2CCCCC2)CC1,-5.71%
2,CC(=O)C(=Cc1cn(-c2ccccc2)nc1-c1ccccc1)C(C)=O,-21.3%
3,CC(C)N(CCCNC(=O)CC1Oc2ccccc2NC1=O)Cc1ccccc1 (stereo not shown),-26.3%
4,O=C(NC1=NCCS1)c1ccc([N+](=O)[O-])cc1Cl,5.48%
5,CCOC(=O)Cn1nc(-c2ccccc2)c(-c2ccccc2)nc1=O,-33.2%
6,CCOc1ncccc1C(=O)Nc1ccc(C)cn1,14.4%
7,CCCCN1C(=O)C2Cc3c([nH]c4ccccc34)CN2C1=S (stereo not shown),16.4%
8,COc1cccc2c(=O)c3c([nH]c12)OC(C)(C)C3,13%
9,COCCNc1nc(-c2cc3ccccc3o2)cs1,2.17%
10,COc1cccc(NC(=O)c2ccc(N3C(=O)C4CC=C(C)CC4C3=O)cc2)c1 (stereo not shown),15.7%
11,CC(=O)N1c2ccc(S(=O)(=O)N3CCC(C(=O)N4CCCCC4)CC3)cc2CC1C (stereo not shown),19%
12,Nc1nnc(CC(=O)N2CCCCC2)s1,12.5%
13,CCCCC(=O)C1C(=O)NC(=O)NC1=O,-7.2%
14,Cc1ccc(-c2c[n+](CC(=O)c3ccc(Br)cc3)c3n2CCCCC3)cc1.[Br-],-61.4%
15,COC(=O)Cn1c2ccc(F)cc2c2nc(C)sc21,7.03%
16,Cn1cnnc1SCC(=O)Nc1sccc1C#N,5.43%
17,CCC1CCC/C1=N\NC(=O)CCC(=O)Nc1ccccc1Cl (stereo not shown),7.77%
18,C=CCNC(=O)/C(=C\C=C\c1ccccc1)NC(=O)c1ccc(OCCCC)cc1,3.8%
19,CCCCN=C1NN=C(c2ccc3c(c2)OCCO3)CS1,-15.5%
20,CCOc1ccc(NC(=O)CSc2nnc(C)n2CCCOC)cc1,9.67%
21,CCOC(=O)C(O)(c1ccc(N(C)C(=O)COc2ccccc2)cc1)C(F)(F)F (stereo not shown),-11%
22,CN(C)CCCN=Cc1c(O)n(Cc2ccco2)c(=O)[nH]c1=O,16.5%
